From PubChem BioAssay AID623998 (Broad Institute, 2012)
Records with an inconclusive call do not appear. Some entries of the source have several records that differ or are many. The other results are left out here. There may be further records. Values given together repeat one measurement (runs, samples, wells, individuals or studies). What stands in brackets tells the records apart. A, B and so on number the origins entry by entry.

Target: Glycogen synthase kinase-3 beta (Homo sapiens) (UniProt P49841)
UniProt P49841, sequence (P49841 whole entry, looked up): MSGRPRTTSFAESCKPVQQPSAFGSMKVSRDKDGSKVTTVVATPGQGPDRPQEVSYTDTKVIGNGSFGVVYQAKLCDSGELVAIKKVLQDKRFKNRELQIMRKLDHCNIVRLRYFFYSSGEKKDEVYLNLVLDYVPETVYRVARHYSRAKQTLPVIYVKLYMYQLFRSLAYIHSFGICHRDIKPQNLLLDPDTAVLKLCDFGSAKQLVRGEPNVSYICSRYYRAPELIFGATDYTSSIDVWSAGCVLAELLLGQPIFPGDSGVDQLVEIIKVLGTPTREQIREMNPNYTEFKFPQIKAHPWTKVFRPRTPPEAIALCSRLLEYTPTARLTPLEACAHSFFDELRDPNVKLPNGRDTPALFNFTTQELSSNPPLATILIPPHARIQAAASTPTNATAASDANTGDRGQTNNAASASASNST
Assay: inhibition of human GSK3beta kinase activity – biochemical, ADP-Glo luminescence, dry powder samples, SAR follow-up (AID 623998)
Conditions: GSK3beta ADP-Glo luminescence kinase assay, 60 min

Compound: COc1ccccc1[C@@H]1C2=C(CC(C)(C)CC2=O)Nc2n[nH]c(C)c21
- AC50: 12.6 nM [sample A] and 7.37 µM [sample B]
